Entries after “also recorded” stand apart in the source; their conditions may differ.
Tests used:
[1] = tested on: high fat diet (HFD) fed C57BL6J mice; test: High fat diet fed mouse model of type II diabetes; format: in vivo
From the text: To evaluate whether Gal3-INSR blockade by Gal3-targeted antibodies functionally impacted diabetes biology, a mouse model of type II diabetes was employed. Male C57BL6J mice were purchased from Jackson Lab and fed with high fat diet (HFD, 60% kcal from fat, Research Diet, Catalog #12492i) starting from 7-week old for 8 weeks, 10 or 16 weeks. Age-matched male C57BL6J mice fed with standard chow diet were used as control mice. […] Mice were fed with standard chow diet or HFD ad libitum except when fasted as indicated in the experiments. Glucose tolerance test (GTT) and insulin tolerance test (ITT) were done at 15 weeks and 16 weeks old (8 weeks and 9 weeks after HFD), respectively, to confirm the insulin resistant and glucose intolerant phenotype. For GTT, mice were fasted for 6 hours by transferring mice to clean cage with no food or faeces but with drinking water and then injected with 2 g/kg glucose (Sigma) and blood was drawn to measure glucose levels at 0, 15, 30, 60, 90, and 120 minutes after glucose injection. For ITT, mice were fasted for 6 hours, and then injected with 0.75 IU/kg body weight of Humalin-R (Eli Lilly) intraperitoneally. Blood from the tail was measured for glucose content using HemoCue Glucose 201 Analyzer at 0, 15, 30, 45, 60 minutes. Based on area under the curve (AUC) from ITT, HFD fed mice were randomized into two groups: human IgG4 isotype group and IMT001-4 treated group. At 17 weeks of age, mice were given antibody treatments by intraperitoneal injection twice a week for 5 doses before ITT and GTT were done at 19 weeks old and 20 weeks old. Human IgG4 isotype and IMT001-4 were dosed at 10 mg/kg with 100 μl/mouse and BM was dosed at 10 mg/ml with 100 μl/mouse. Treatments continued until the mice were sacked at 21 weeks old. The mice body weight was monitored one week after the mice arrived at the facility. Body weight was measured once a week using a balance. Mouse blood was collected using cardiac puncture. Liver, gastrocnemius muscle, and posterior subcutaneous white adipose fat were collected and weighed.
To further evaluate the ability of IMT001-4 to impact the pathological sequalae of diabetes, liver sections from animals treated as in FIGS. 3-5 were examined for signs of fat accumulation, e.g., steatosis. Briefly, liver specimens were fixed in 4% paraformaldehyde for 24 hours, placed in 70% EtOH for 3 days, embedded into paraffin and 10 μm sections were cut and mounted to glass slides and stained with hematoxylin and eosin and visualized on a Revolve microscope at 40× magnification. Images were evaluated by ImageJ to quantitate the extent of steatosis.
To further characterize the liver disease observed in histological samples, serum markers of liver dysfunction were evaluated in animals treated as above by ELISA. Briefly, mouse plasma samples were obtained from whole blood sample in lithium heparin collection tubes. 100 μl of serum was dispensed into the rotor of a VetScan VS2 Blood Chemistry Analyzer (Abaxis) through the sample port. ALT levels were determined as per the manufacturer's specification. […] Accordingly, the Gal3-targeted Gal3-INSR blocking antibody, IMT001-4, has utility in reducing serum liver enzymes.

[2] = tested on: DSS-treated C57BL/6J mice; test: DSS-induced chronic inflammatory bowel disease mouse model; format: in vivo; conditions: 3% DSS mice
Human Gal3 peptides = biological target: T1, Human Gal3 peptides (Homo sapiens, UniProt P17931); test: Gal3 peptide binding ELISA (Example 8); conditions: antibody 5 μg/mL
T1 construct: purchased LifeTein custom order
How it was run: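 Plates coated overnight at 4 °C with human Gal3 peptides (at least 100 μg/mL) or Gal3 protein (1 μg/mL) in PBS, then blocked with 2% BSA/PBST. Antibodies as hIgG4 (S228P) at 5 μg/mL, 1 h at room temperature. Detection by HRP anti-human IgG F(ab′)2 and TMB, absorbance at 450 nm.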

[3] = tested on: GLUT4 translocation in L6 GLUT4myc myoblasts; test: Insulin-stimulated GLUT4 translocation with Gal3 and anti-Gal3 antibody; format: cell-based, rat; conditions: 30 μg/mL Gal3 pre-incubated with 60 μg/mL antibody, 100 nM insulin
Experimental: Rat L6 GLUT4myc myoblasts (Kerafast #ESK202-FP) express a Myc-tagged GLUT4 that can be detected with an anti-Myc antibody. These cells were grown in a 48-well plate in MEM u growth media (Gibco, #12-571-063)+10% fetal bovine serum (FBS; Corning #35-016-CV) until 90-95% confluence was reached. Cells were then washed in PBS and serum starved for 2 hours in MEM u growth media without FBS. Thirty (30) μg/mL recombinant human Gal3 (TrueBinding QCB200347) was pre-incubated with 60 μg/mL anti-Gal3 antibodies for 30 minutes before being added to the serum-starved cells for 1 hour at 37° C. At the end of incubation, half of the cells were treated with 100 nM insulin (Sigma-Aldrich #I5523-50MG) for 20 minutes while the other half acted as basal controls. After 20 minutes, cells were washed quickly with ice cold PBS twice, then incubated with 4% paraformaldehyde (Boster Bio #AR1068) for 10 minutes on ice followed by 10 minutes at room temperature. The cells were washed three times with PBS, then blocked with 0.5 mL 5% goat serum (Vector Laboratories #101098-382) in PBS for 15 minutes. After the blocking agent was aspirated from the cells, 1 μg/ml anti-Myc polyclonal antibody (Sigma-Aldrich #C-3956) in 5% goat serum was added for 1 hour. […] Primary antibody was aspirated away, and then cells washed 5 times with PBS. Next, cells (including background controls) were incubated with 1:1000 goat anti rabbit antibody secondary antibody (Abcam #Ab97051) in 5% Goat serum for 30 minutes at room temperature. After washing, cells were incubated with 400 μL of TMB (Thermo Scientific #PI34029) for 5 minutes, then 200 μL of 1N HCL (Avantor Performance #JT5620-2) was added to stop the reaction. 100 μL of the sample was transferred to a 96 well plate with duplicates transferred for each condition. Samples were read at 450 nm on a SpectraMax plate reader. […] The fold changes were plotted on GraphPad Prism and presented as mean (SEM) of the technical replicates. Statistical significance was determined using unpaired T-tests comparing samples treated with Gal3 and insulin with all other conditions.

[4] = tested on: C57BL6/J mice injected with mouse Gal3; test: Gal3-induced glucose intolerance in mice; format: in vivo; conditions: 0.3 mg/kg mouse Gal3 with 30 mg/kg antibody i.p., 0-120 minutes
Experimental: FIG. 49A depicts a schematic for testing the effects of anti-Gal3 antibody administration on Gal3-mediated glucose intolerance in vivo in mice. […] Blood was collected from the mice at 0, 30, 60, 90, and 120 minutes after the glucose injection for blood glucose measurement.

[5] = tested on: HFD-fed Bks-db (db/db) mice; test: HFD-fed db/db mouse model of advanced type II diabetes

B1: TB001: humanized anti-Gal3 antibody derived from mouse mAb, hIgG4 backbone (antibody)
heavy: QVQLVQSGSELKKPGASVKVSCKASGYTFTNYGMNWVRQAPGQGLKWMGWINTNTGEPTYVEEFTGRFVFSLETSVSTAYLQISSLKAEDTAVYFCAPYDNFFAYWGQGTTVTVSSASTKGPSVFPLAPCSRSTSESTAALGCLVKDYFPEPVTVSWNSGALTSGVHTFPAVLQSSGLYSLSSVVTVPSSSLGTKTYTCNVDHKPSNTKVDKRV[in this place human IgG4 Fc with S228P (EU numbers)]
light: DIVLTQSPLSLPVTPGEPASISCRSSKSLLYKDGKTYLNWFLQKPGQSPQLLIYLMSTHASGVPDRFSGSGSGTDFTLKISRVEAEDVGVYYCQQLVDYPLTFGGGTKLEIKRTVAAPSVFIFPPSDEQLKSGTASVVCLLNNFYPREAKVQWKVDNALQSGNSQESVTEQDSKDSTYSLSSTLTLSKADYEKHKVYACEVTHQGLSSPVTKSFNRGEC
modifications: TB001 heavy chain peptide sequence; TB001 light chain peptide sequence
notes: humanized anti-Gal3 antibody derived from mouse mAb, hIgG4 backbone
- glucose tolerance test (response to glucose challenge) ([1]; 10 mg/kg i.p. twice a week): cleared glucose significantly more rapidly
- insulin tolerance test (glucose reduction after insulin challenge) ([1]; 10 mg/kg i.p. twice a week): glucose clearance indistinguishable from non-diabetic mice fed a normal diet
- body weight gain ([1]; 10 mg/kg i.p. twice a week, 19 day study): did not gain any appreciable weight
- liver steatosis, image quantification ([1]; ImageJ, relative to isotype control): complete reversion of disease state
- liver steatosis, H&E stained sections ([1]; listed as IMT001-4): absence; also recorded: negligible levels of steatosis
- serum liver enzyme ALT levels ([1]; relative to isotype control): significantly decreased
- colon length [2]: restored DSS-induced reduction in the colon length
- circulating IFN-gamma (DSS-induced inflammation) ([2]; 10 mg/kg and 1 mg/kg): reduced DSS-induced inflammation
- binding to Gal3 peptide 5 (SEQ ID NO: 7) (Human Gal3 peptides): bound
- binding to Gal3 peptide 6 (SEQ ID NO: 8) (Human Gal3 peptides): bound
- effect on Gal3 block of insulin-stimulated GLUT4 translocation [3]: reduce the ability of Gal3 to block GLUT4 translocation
- blood glucose levels after glucose injection [4]: restoration of blood glucose levels more similar to the PBS injected control mice; also recorded: blood glucose levels similar to PBS injected control mice
- change in fasting blood glucose ([5]; compared to PBS): lack of change
- survival ([5]; once weekly, twelve weeks): significantly prolonged survival

— patent US20220411514A1, “ANTI-GAL3 ANTIBODIES AND METHODS OF USE FOR INSULIN RESISTANCE” (TrueBinding, Inc., priority 2021, published 2022)
